Hit rate of the full screen: of about 48,000 compounds, about 120 (0.25%) were called active. Roughly 4% stayed inconclusive and do not appear here. The call rests on the fitted dose curve; in most records, active means well fitted activation curve with a large enough effect; inconclusive means small, poorly fitted or top-dose-only effect, or another doubt; inactive means no such curve, though single readings can be large or run the other way. The list shows a part of the results.
test: Primary qHTS for Identification of Small Molecule Activators of Huntingtin-Antisense Promoter Activity; conditions: HEK293 HTT-AS promoter firefly luciferase reporter, 24 h; series mostly up to 57.5 µM; activity change, positive = activation: at the top concentration; further: nearly all actives have a fitted effect of over 55% in size
Procedure, shortened: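 Quantitative HTS used concentration series of up to 57.5 uM final on HEK293 luciferase reporter cells, 24 h at 37 degrees C. Readout was Dual-Glo firefly luminescence.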

Activity change, positive = activation, inactive:
CCCCOc1ccc(C2C(=O)N(C3CCCCC3)CC(=O)N2C2CCCCC2)cc1 (configuration not stated) 0.0613%, Cc1ccc(NC(=O)CN2C(=O)C(c3ccc(F)cc3)=NC23CCCCCC3)c(C)c1 -27.4%, Cc1ccc(C)c(N2CCN(C(=O)c3cc4cc5ccc(C)cc5nc4o3)CC2)c1 0.69%, CC1CCN(S(=O)(=O)c2ccc3nc(NCc4ccc(N(C)C)cc4)ccc3c2)CC1 -39.4%, CCc1cccc(NC(=O)Cn2c(=O)n(CCCCCC(=O)NCc3ccc(F)cc3)c(=O)c3sccc32)c1 -19.9%, C=CCc1cc(OC)c(O)c(C(=O)NCCO)c1, O=C(NCCSc1c[nH]c2ccccc12)c1ccc(Cl)cc1 -8.65%, Cc1ccc(N2CC(NC(=O)CCCc3ccccc3)CC2=O)cc1 (configuration not stated) -11.6%, COc1ccc(Cn2c(SCc3ccc(C(=O)NCc4ccc(C)cc4)cc3)nc3cccnc32)cc1 -35.6%, O=C(NCCc1ccccc1)c1ccc2c(c1)N(Cc1ccc(Cl)cc1)C(=O)c1ccccc1S2(=O)=O 10.3%, CCN(c1ccccc1C)S(=O)(=O)c1nnc(NC(=O)c2ccc(OC)c(OC)c2)s1 -41.3%, Cc1ccc(C2=Nc3ccccc3N=C(c3ccc(F)cc3)C2)c(O)c1 -8.46%, CCc1nc(SC)ncc1C(=O)NCc1cccc(Br)c1 -14.4%, Cc1ccc(Cl)cc1N1CCN(c2nc3ccc(C(=O)c4ccccc4)cc3n3cnnc23)CC1 -11.7%, O=C(Cn1nc(Cc2cccnc2)c2ccccc2c1=O)N1CCN(c2ccccc2F)CC1 -14.9%, COc1ccc(CNC(=O)c2ccc(CN3C(=O)C(C)=C(c4ccc(C)cc4)S3(=O)=O)cc2)cc1 -24%, CCC1CCCCN1CCCNC(=O)c1ccc2c(c1)c(C)c(C)n2CC (configuration not stated) -17.8%, Cc1ccc(C)c(OCC(=O)Nc2sc3c(c2C#N)CCCC3)c1C -6.79% [at 11.5 µM, percent change from vehicle, -100% = no light], CCOC(=O)c1c(Nc2ccc(C)c(C)c2)nnc(-c2ccccc2)c1-c1ccccc1 -31.7%, CCOc1ccc(NC(=O)NCCN2CCN(c3cc(Cl)ccc3C)CC2)cc1 -38.2%, O=C(NCCc1ccccc1)c1c[nH]c2ccc(S(=O)(=O)Nc3ccc(F)cc3F)cc2c1=O -20.8%, COc1ccc(CNC(=O)CN2N=C(c3ccc(Cl)cc3)CCC2=O)cc1 -10.8%, CCc1ccc(C(=O)c2cn(CC(=O)NCCc3ccccc3)c3nc(C)ccc3c2=O)cc1 -9.62%, COc1cccc(NC(=O)C2CCCN(c3ncnc4onc(-c5ccc(F)cc5)c34)C2)c1 (configuration not stated) -5.06%, COc1ccc(-c2onc(C)c2C)cc1S(=O)(=O)NCc1cccs1 -19.6%, CCOC(=O)c1noc2ncn(CC(=O)Nc3ccc(F)cc3Cl)c(=O)c12 -2.9%, CCOc1ccc(C(=O)Nc2ccc3c(c2)CCCN3S(=O)(=O)c2ccc(C)cc2)cc1 -1.05%, CC1CCCCN1Cc1c(O)ccc2c(=O)c(-c3ccc(Cl)cc3)c(C(F)(F)F)oc12 (configuration not stated) -15.4%, CC1=C(C(=O)OCc2ccc(C)cc2)C(c2ccccc2C(F)(F)F)CC(=O)N1 (configuration not stated) -32.1%, Cc1ccc(OCCSc2nc3ccccc3n2CC(=O)N2CCOCC2)cc1 -15.3%, C#C[C@]1(O)CC[C@H]2[C@@H]3CCC4=CC(=O)CC[C@@H]4[C@H]3CC[C@@]21C -7.22%, CCOC(=O)c1sc2ncn(CC(=O)Nc3ccc(F)cc3F)c(=O)c2c1C -2.34%, COC(=O)c1c(NC(=O)c2ccc(Cl)c(Cl)c2)sc2c1CCCC2 11.7%, CCOc1ccc(NC(=O)CSc2nnc3scc(-c4ccccc4)n23)cc1 -11.4%, Cc1ccc(-n2ncc(C(=O)Nc3ccc4c(c3)OCCO4)c2C2CCN(C(=O)OC(C)(C)C)CC2)cc1C -8.3%, CC1=C(C(=O)NCc2cccc(F)c2)C2(CCCCCC2)OC1=O -13.2%, COc1ccc(CNC(=O)c2cc(-c3ccc(Br)s3)nc3ccccc23)c(OC)c1 -16%, COc1ccccc1N1CCN(C(=O)Cn2ncc3c2-c2cc(C)ccc2OC3)CC1 -36.6%, COc1ccc(Nc2nc3ccc(C)cc3nc2-n2nc(C)cc2C)cc1Cl -3.61%, COCCN1CCc2nc(SCC(=O)Nc3ccc(C)c(Cl)c3)[nH]c(=O)c2C1 17.7%, COc1ccccc1NC(=O)CC1Sc2ccc(C(F)(F)F)cc2NC1=O (configuration not stated) -16.8%, CCOc1ccccc1CNC(=O)Cn1c(=O)c2cccn2c2ccc(F)cc21 0.853%, COc1ccc(CCNc2ncnc3c2c(-c2ccccc2)cn3-c2ccc(Cl)cc2)cc1OC -41.2%, CCOC(=O)CSc1nc2ccc(NC(=O)c3ccc(Cl)cc3)cc2s1 20.5%, Cc1cc2c(cc1C1(c3ccc(C(=O)O)cn3)CC1)C(C)(C)CCC2(C)C 5.71%, COc1cc(CN(C(=O)c2ccc(OC(C)C)cc2)c2ccccn2)cc(OC)c1OC -54.1%, COc1cccc(-c2nc(CS(=O)(=O)CC(=O)Nc3cccc(C(C)=O)c3)c(C)o2)c1 -33.8%, COC(=O)c1ccc(NC(=O)C2CCN(c3ncnc4c3nc3n4CCCCC3)CC2)cc1 -8.63%, Cc1cc(C)cc(NC(=O)CSc2c(C(C)C)cnc3c2c(=O)n(C)c(=O)n3C)c1 -13.1%, Cc1cc(Nc2nc3ccccc3c3nnc(C)n23)ccc1Br 4.96%, Cc1cc(C)cc(Nc2cc(C(=O)NC3CCCCC3)c3ccccc3n2)c1 -13.2%, COc1ccc(C)cc1NC(=O)c1cc(S(=O)(=O)N2CCC(C)CC2)ccc1F -7.72%, CCOC(=O)c1ccccc1NC(=O)CSc1nnc(CC)n2c1cc1occc12 -20.4%, CCCCc1ccc(C(=O)Nc2ccc3nc(N4CCN(CC)CC4)cc(C)c3c2)cc1 -15.6%, O=C(O)CNC(=O)c1ccccc1 -3.67%, Fc1ccc(-c2cc3ncc4c(n3n2)-c2cc(Cl)ccc2OC4)cc1 -4.2%, Nc1cc(C(F)(F)F)ccc1S -7.38%, Cc1oc(-c2ccccc2F)nc1Cn1c(SCc2cccc(C(F)(F)F)c2)nc2ccncc21 -27.1%, CCc1ccccc1NC(=O)c1cc(-c2ccc(Cl)s2)nc2ccccc12 -20.4%, O=C1CC[C@@H](C(=O)O)N1 -9.85%, O=C(Nc1ccccc1F)c1cnc(N2CCCCC2)c2ccccc12 -30.5%, CCOc1ccccc1NC(=O)Cn1c(=O)n(Cc2ccc(OC)cc2)c(=O)c2oc3ccccc3c21 -1.21%, COc1ccc(OC)c(CNC(=O)CCCn2c(=O)c3cccn3c3cccnc32)c1 5.96%, COc1ccccc1-c1nnc(C2CCN(C(=O)c3ccccc3C)CC2)o1 -13.4%, COc1ccc(N(CC(=O)Nc2cc(OC)cc(OC)c2)S(=O)(=O)c2c(C)noc2C)cc1 -37.5%, Cc1cc2c(cc1S(=O)(=O)Nc1ccc(C(C)C)cc1)OCCN2C -42.5%, Cc1ccc(O)c(NC(=O)CCS(=O)(=O)c2nc(-c3cccs3)cc(C(F)(F)F)n2)c1 -66.9%, Cc1cccc(-n2c(C)cc(C(=O)C(=O)Nc3nncs3)c2C)c1 9.46%, Cc1ccc(C(C)C)c(OCC(=O)Nc2cc(-c3nc4ccccc4[nH]3)ccc2C)c1 -41.9%, Cc1cccc(-n2cnc3cc(C(=O)NCc4ccccc4Cl)ccc32)c1 -26.4%, CCN(C(=O)c1coc(=O)c2ccccc12)c1ccccc1C -11.8%, CC(C)c1ccc(C(=O)Nc2cc(-c3ccccc3F)nn2-c2ccccc2)cc1 -19.1%, Cc1ccc(-c2nnn3c2nc(NCCc2ccc(Cl)cc2)c2ccccc23)cc1 6.52%, CCCOc1ccc(CNC(=O)Cn2ncn3c(cc4sc(CC)cc43)c2=O)cc1 4.69%, CCOc1ccc(CNCc2c(C(=O)O)n(Cc3ccc(C)cc3)c3cc(C)ccc23)cc1 -42.1%, Cc1c(Cl)cccc1NC(=O)CN(CCc1ccccc1)S(=O)(=O)c1ccccc1 -35.3%, Cc1ccccc1Nc1ncnc2c1cnn2C 3.32%, CCCCN(CC)CCNC(=O)c1cc2c(=O)[nH]c3ccccc3c2n1C -11.8%, Cc1cccc(C(=O)N2CCc3cc(CNS(=O)(=O)c4ccc(Cl)s4)ccc32)c1 -29.7%, O=C(NCc1ccc(F)cc1)c1ccc2c(O)c(S(=O)(=O)c3ccccc3)c(=O)[nH]c2c1 -3.11%, CCCCn1c(NCc2ccc(OC)cc2O)nc2ccccc21 -17.7%, Cc1ccccc1NS(=O)(=O)c1ccc2[nH]cc(C(=O)N3CCCCC3)c(=O)c2c1 -12.7%, COc1ccc(C)cc1-n1nnc(-c2nc(-c3ccccc3Cl)no2)c1N 7.58%, O=C(NCc1ccccc1)c1ccc(CSc2nc3cccnc3n2Cc2cccc(F)c2)cc1 -23.9%, CCCCn1nc(NC(=O)c2cccc(Cl)c2)c2cc3ccccc3nc21 0%, CCCc1nc2ccccc2n2c(-c3ccccc3)c3c(=O)n(C)c(=O)n(C)c3c12 -23%, Cc1ccccc1CN1C(=O)c2ccccc2Sc2ccc(C(=O)N3CCCC3)cc21 -34.3%, O=c1c(S(=O)(=O)c2ccccc2)cn(Cc2cccc(F)c2)c2cc(N3CCOCC3)c(F)cc12 -30.3%, COc1ccc(OC(=O)c2nc(SCc3ccc(F)cc3)ncc2Cl)cc1 -2.5%, CCOc1ccc(NC(=O)c2cnn3c2NC(c2cccc(OC)c2)=CC3c2ccccc2)cc1 (configuration not stated) -35.3%, Cc1ccc(C2=NN(CC(=O)NCCC(C)C)C(=O)CC2)cc1 -7.41%, COc1cccc(-c2nnc(-c3ccccc3NC(=O)c3cccc(C(F)(F)F)c3)o2)c1 -7.44%, CCOC(=O)c1cc(OC(=O)c2ccc(C)cc2)n(-c2ccccc2)n1 -9.08%, COc1ccc(NC(=O)c2ccco2)cc1NC(=O)COc1ccccc1 -7.39%, CCOC(=O)c1ccc(NC(=O)c2c(NCc3cccs3)sc3c2CCCC3)cc1 -17.2%, CCc1ccc(S(=O)(=O)c2cn(C)c3cc(N4CCC(C)CC4)c(F)cc3c2=O)cc1 -10.1%, Cn1c(=O)n(C)c2cc(N3CCOCC3)c(NC(=O)c3ccccc3Br)cc21 -12%

— PubChem BioAssay AID1508624 (National Center for Advancing Translational Sciences (NCATS), 2021)
